PubChem BioAssay AID904 (National Center for Advancing Translational Sciences (NCATS), 2007)
Among all 55,000 compounds or so, about 530 (0.96%) were called active. Inconclusive results, whose numbers are uncertain, are shown with a selection of clear calls. Calls come from the whole dose curve; as a rule, active = well fitted cell-killing curve with a large enough effect; inconclusive = small, poorly fitted or top-dose-only effect; inactive = no such curve, though single readings can be large or run the other way. Where the call is inconclusive, the potency comes from a doubtful curve fit.

Experiment: qHTS Screen for Compounds that Selectively Target Cancer Cells with p53 Mutations: Cytotoxicity of p53 Null Cells at the Nonpermissive Temperature; note: nearly all actives have a fitted effect of over 50% in size;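 for activity, negative = cell killing: 0% = DMSO only and -100% = full killing by 100 µM tamoxifen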
Conditions: H1299 p53-null (neo) cells, 39C, ATPlite viability, 24 h; activity, negative = cell killing: at 46.1 µM (top of the series)
Outline: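 Concentration-response (up to 46 uM) was run for 24 h at the nonpermissive 39C on H1299-p53A138V or H1299-neo cells. ATP content was measured with ATPlite luminescence. AC50 values were Hill-modeled after normalizing between DMSO and 100 uM tamoxifen killing.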
Potency is the fitted concentration of half-maximal effect; tags give direction and shape of the fitted curve.

| SMILES | Potency | activity, negative = cell killing |
| --- | --- | --- |
| CC(=O)c1ccc(N2CCN(S(=O)(=O)c3c(C)nc4sc(C)cn4c3=O)CC2)cc1 | inconclusive: 31.6 µM [cytotoxic, single point] | – |
| COc1ccc(Cn2c(C(=O)O)c(CNCc3cccc(OC)c3)c3ccc(C)cc32)cc1 | inconclusive: 0.501 µM [cytotoxic, full curve] | – |
| CCCCN(CC)CCNC(=O)Cn1cnc2sc(C)c(S(=O)(=O)N3CCC(C)CC3)c2c1=O | inactive | – |
| COc1cc(OC)nc(NC(=O)CS(=O)(=O)c2ccccc2)n1 | inconclusive: 1.26 µM [cytotoxic, full curve, poor fit] | – |
| O=C(COC(=O)c1cc(-c2cccs2)nc2ccccc12)c1ccc(Br)cc1 | inconclusive: 1.58 µM [cytotoxic, partial curve] | – |
| CCN(c1cccc(C)c1)S(=O)(=O)c1nnc(NC(=O)c2cccs2)s1 | inactive | – |
| COc1ccc(C(=O)Nc2cc(C(F)(F)F)ccc2N2CCN(c3ccccc3)CC2)cc1OC | inactive | – |
| O=C(NC1CC(=O)N(c2ccc(F)cc2)C1)c1cc2ccccc2o1 (centres undefined) | inconclusive: 1.41 µM [cytotoxic, full curve, poor fit] | – |
| Cc1cccc(NC(=O)c2cnn(-c3ccccc3)c2-n2cccc2)c1C | inactive | – |
| COc1ccc(-c2cc(C(=O)Nc3c(C(=O)c4ccc(Cl)cc4)oc4ccccc34)no2)cc1 | inactive | – |
| COc1ccc(Cl)cc1NS(=O)(=O)c1cc(-c2cc(C)no2)ccc1C | inactive | – |
| CCC(CC)C(=O)Nc1cc(-c2cccc(C)c2)nn1-c1ccccc1 | inconclusive: 0.0063 µM [cytotoxic, full curve, poor fit] | – |
| CCOc1ccc(-c2cnc(NCc3ccc(C(F)(F)F)cc3)n2C)cc1 | inconclusive: 35.5 µM [cytotoxic, partial curve, poor fit] | – |
| Cc1cccc(OCCCCn2c(C3CC(=O)N(c4ccccc4Cl)C3)nc3ccccc32)c1 (centres undefined) | inconclusive: 10 µM [cytotoxic, partial curve] | – |
| Cn1c(=O)n(C/C=C/c2ccccc2)c(=O)c2c1nc1n2CCN1c1ccc(F)cc1 | inconclusive: 25.1 µM [cytotoxic, single point] | – |
| O=C(c1cccs1)N(Cc1cccnc1)c1nc2c(Cl)cccc2s1 | inconclusive: 11.2 µM [cytotoxic, partial curve, poor fit] | – |
| Cc1ccc(-n2c(=O)c3ccc(C(=O)NCc4ccco4)cc3n(Cc3ccccc3C#N)c2=O)cc1 | inconclusive: 31.6 µM [cytotoxic, single point] | – |
| COc1ccc(NCc2cc3cc4c(cc3n(CC(=O)Nc3cc(C)ccc3C)c2=O)OCCO4)cc1 | inconclusive: 0.158 µM [cytotoxic, full curve, poor fit] | – |
| O=C(Nc1cccc(C(F)(F)F)c1)c1cc(-c2ccc3c(c2)OCCO3)on1 | inconclusive: 6.31 µM [cytotoxic, partial curve] | – |
| CC(=O)c1ccc(N2CCN(C(=O)CCCCn3c(=O)[nH]c4ccsc4c3=O)CC2)cc1 | inconclusive: 0.158 µM [cytotoxic, full curve, poor fit] | – |
| CCOC(=O)c1cccc(NS(=O)(=O)c2cc(-c3cnc(C4CC4)o3)ccc2C)c1 | inactive | – |
| Cc1cc(C)cc(NC(=O)Nc2ccc3nc(N4CCN(C)CC4)cc(C)c3c2)c1 | inactive | – |

| SMILES | Potency | activity, negative = cell killing |
| --- | --- | --- |
| Cc1c(C(=O)NCc2cccc(Cl)c2)sc2nc[nH]c(=O)c12 | inactive | – |
| O=C(Nc1ccc2c(c1)CCCN2C(=O)c1cccs1)c1ccccc1 | inconclusive: 22.4 µM [cytotoxic, partial curve, poor fit] | – |
| COc1cc(OC)c(-c2cc(C(=O)NCc3ccc(F)cc3)c3c(-c4ccccc4)[nH]nc3n2)cc1OC | inconclusive: 20 µM [cytotoxic, partial curve] | – |
| CCc1ccc2ncc(C(=O)c3ccc(C)c(C)c3)c(N3CCC(C(N)=O)CC3)c2c1 | inconclusive: 31.6 µM [cytotoxic, single point] | – |
| CC(C)(C)c1ccc(C(=O)NCC(c2ccco2)S(=O)(=O)c2ccc(F)cc2)cc1 (centres undefined) | inconclusive: 15.8 µM [cytotoxic, partial curve, poor fit] | – |
| CN(C)c1ccc(CNC(=O)c2ccc(Cn3c(=O)c4cccn4c4cccnc43)cc2)cc1 | inconclusive: 0.004 µM [cytotoxic, full curve, poor fit] | – |
| Cc1ccc(-n2ncc3c(Nc4ccc(Oc5ccccc5)cc4)ncnc32)c(C)c1 | inactive | – |
| COc1ccc(Cl)cc1NC(=O)CSc1nc(=O)n(Cc2ccco2)c2c1CCC2 | inconclusive: 0.005 µM [cytotoxic, full curve, poor fit] | – |
| Cc1cc(Nc2cccc(C(F)(F)F)c2)nc2ccc(NC(=O)Cc3ccc(Cl)cc3)cc12 | inconclusive: 35.5 µM [cytotoxic, single point] | – |
| COc1ccc(OCC(=O)Nc2ccc(-c3nc4cc(Cl)ccc4o3)cc2)cc1 | inactive | – |
| CCOc1ccccc1NC(=O)Cn1c(=O)n(CC(=O)NCc2ccccc2Cl)c(=O)c2sccc21 | inconclusive: 5.01 µM [cytotoxic, full curve, poor fit] | – |
| COc1ccc(F)cc1S(=O)(=O)NCC(c1ccco1)S(=O)(=O)c1cccs1 (centres undefined) | inactive | – |
| CC(C)(C)c1ccc(OCC(=O)Nc2ccc(C(=O)OC3CCCCC3)cc2)cc1 | – | inconclusive: -30.5% [cytotoxic] |
| CN1CCN(C(CNC(=O)C(=O)Nc2ccc(Cl)cc2)c2cccnc2)CC1 (centres undefined) | inconclusive: 20 µM [cytotoxic, single point] | – |
| CC1=C(c2ccc(C(C)C)cc2)S(=O)(=O)N=C1N1CCN(c2ccccc2F)CC1 | inconclusive: 20 µM [cytotoxic, single point] | – |
| CC(C)C[C@H](N)c1nnc(SCc2ccc(Cl)cc2Cl)o1 | inconclusive: 31.6 µM [cytotoxic, single point] | – |
| CCOC(=O)c1cc(OC(=O)c2ccccc2F)n(-c2ccccc2)n1 | inconclusive: 0.1 µM [cytotoxic, full curve, poor fit] | – |
| CCOc1ccccc1NC(=O)Cn1nnc(C(=O)NCc2cccs2)c1N | inconclusive: 2.51 µM [cytotoxic, partial curve] | – |
| CCOc1ccccc1NC(=O)c1nc(S(=O)(=O)Cc2cccc(C)c2)ncc1Cl | inconclusive: 31.6 µM [cytotoxic, single point] | – |
| Cc1cc(F)ccc1NC(=O)c1csc2c1CCC(C)C2 (centres undefined) | inconclusive: 25.1 µM [cytotoxic, single point] | – |
| Fc1ccccc1Nc1c2c(nc3ccccc13)CCC2 | inconclusive: 12.6 µM [cytotoxic, single point] | – |
| Cc1ccc(NC(=O)c2ccc(NC(=O)N3CCSc4ncccc43)cc2)c(Cl)c1 | inconclusive: 6.31 µM [cytotoxic, partial curve] | – |

| SMILES | Potency | activity, negative = cell killing |
| --- | --- | --- |
| O=C(Nc1ccc(Cl)cc1)c1cnn2c1NC(c1ccccc1)=CC2c1ccccc1 (centres undefined) | inconclusive: 12.6 µM [cytotoxic, partial curve, poor fit] | – |
| COc1ccc(NC(=O)CSc2ccc(C)cc2)cc1 | inconclusive: 20 µM [cytotoxic, partial curve] | – |
| COc1ccc(NC(=O)c2c(NCc3ccc(C)o3)sc3c2CCCCC3)c(OC)c1 | inactive | – |
| c1ccc(-n2ncc3c(NC4CCCC4)ncnc32)cc1 | inconclusive: 10 µM [cytotoxic, partial curve] | – |
| NS(=O)(=O)c1ccc(CCNC(=O)C2COc3ccccc3C2)cc1 (centres undefined) | inconclusive: 0.141 µM [cytotoxic, full curve, poor fit] | – |
| Cc1cc(NC(=O)c2ccc(Br)o2)cc(-c2nc3ccccc3o2)c1O | inconclusive: 15.8 µM [cytotoxic, single point] | – |
| CC(C)CCNC(=O)c1cccc(Nc2nc3ccccc3n3nnnc23)c1 | inconclusive: 1.26 µM [cytotoxic, partial curve] | – |
| O=C(CC1Sc2ccc(C(F)(F)F)cc2NC1=O)Nc1ccc(Cl)c(C(F)(F)F)c1 (centres undefined) | inconclusive: 15.8 µM [cytotoxic, single point] | – |
| O=C(CCC1N=C2c3ccccc3N=C(SCC(=O)Nc3ccccc3F)N2C1=O)NCc1ccccc1 (centres undefined) | inconclusive: 0.794 µM [cytotoxic, partial curve] | – |
| COc1cccc(NC(=O)CSC2=Nc3ccccc3N=C(c3ccc(F)cc3)C2)c1 | inconclusive: 0.158 µM [cytotoxic, full curve] | – |
| CCc1ccc(-n2c(SCc3ccccc3F)nc3[nH]ncc3c2=O)cc1 | inconclusive: 15.8 µM [cytotoxic, single point] | – |
| CCOCCCNC(=O)NC(C)c1c(-n2cccc2)sc2c1CCN(CC)C2 (centres undefined) | inactive | – |
| Cc1cc(C)c(CSc2nnc(C)n3c2cc2occc23)c(C)c1 | inconclusive: 12.6 µM [cytotoxic, partial curve] | – |
| Cc1ccn2c(Nc3ccccc3C)c(-c3ccccn3)nc2c1 | inconclusive: 7.08 µM [cytotoxic, partial curve, poor fit] | – |
| CCc1ccccc1NC(=O)c1nnn(-c2ccc(F)cc2)c1C | inconclusive: 10 µM [cytotoxic, single point] | – |
| Cc1c(Cl)ccc2sc(NC(=O)c3ccc(S(=O)(=O)N4CCCc5ccccc54)cc3)nc12 | inactive | – |
| Cc1c(Cl)cccc1-c1ccc(CNc2ccc3[nH]c(=O)[nH]c3c2)o1 | inactive | – |
| C=CCc1ccccc1OCCSc1nc(-c2ccc(C(C)(C)C)cc2)nc2cc(=O)[nH]n12 | inactive | – |
| COc1ccc(-n2ccnc(NCc3ccc(Cl)cc3)c2=O)cc1 | inactive | – |
| CCN(Cc1ccccc1)C(=O)c1c(C)oc2ncn(C)c(=O)c12 | inactive | – |
